# Test results from PubChem BioAssay AID1458 (National Center for Advancing Translational Sciences (NCATS), 2008).
# Among all 210,000 compounds or so, about 5,900 (2.8%) were called active. The inconclusive results got no clear call from the source; some entries with a clear call stand among them for comparison. The call rests on the fitted dose curve; in most records, active means well fitted activation curve with a large enough effect; inconclusive means small, poorly fitted or top-dose-only effect; inactive means no such curve, though single readings can be large or run the other way. Where the call is inconclusive, the potency comes from a doubtful curve fit.
# Assay: qHTS Assay for Enhancers of SMN2 Splice Variant Expression; further: nearly all actives have a fitted effect of over 55% in size
# Settings: HEK293 SMN2-luciferase splicing reporter, luminescence, 30-36 h; series mostly up to 46.1 µM
# How it was run: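 HEK293 cells carry an SMN2 […]–luciferase reporter in which exon 7 inclusion puts luciferase in frame. Cells were plated 10-12 h before compound addition, then incubated 30-36 h at 37C. ONE-Glo luminescence was read; sodium butyrate at 4.5 mM final served as control.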
# Potency means the concentration at half of the fitted maximal effect; tags describe the fitted curve by direction and shape.
row,SMILES,Potency
1,O=C(NC1CCCC1)C(c1ccncc1)N(Cc1ccccc1)C(=O)c1ccc(-c2ccccc2)[nH]1 (stereo not drawn),"inconclusive: 8.91 µM [activator, partial curve, poor fit]"
2,CNc1nc(C)c(C(=O)OCc2ccccc2)s1,"inconclusive: 35.5 µM [activator, partial curve, poor fit]"
3,CCOc1ccc(NC(=O)Cn2c(=O)n(-c3ccc(C)cc3)c(=O)c3cc(OC)c(OC)cc32)cc1,inactive
4,CCOC(=O)Cn1nnc2c(sc3nc4c(c(-c5ccc(Cl)cc5)c32)CCC4)c1=O,inactive
5,COc1ccc2nc(N3CCOCC3)cc(C)c2c1,active: 11.2 µM
6,O=c1onc2cnc3ccccc3n12,"inconclusive: 22.4 µM [activator, partial curve, poor fit]"
7,COCCNC(=O)CCn1c(=O)oc2ccccc21,"inconclusive: 5.62 µM [activator, single point]"
8,COC(=O)c1ccccc1NC(=O)N1CCCC1,"inconclusive: 0.158 µM [activator, partial curve, poor fit]"
9,COCCCNC(=O)c1ccc2c(c1)N=C(C)c1c(C)ccc(C)c1S2,"inconclusive: 35.5 µM [activator, single point]"
10,Cc1cc(C)cc(OCC(=O)NC2=NCCS2)c1,"inconclusive: 0.0079 µM [activator, full curve, poor fit]"
11,COc1ccc(C(=O)NC(=O)NC2(C(Cl)(Cl)Cl)OCCO2)cc1,active: 2.24 µM
12,CSc1cccc(NC(=O)c2ccccn2)c1,"inconclusive: 0.01 µM [activator, full curve, poor fit]"
13,CCCCC(=O)N(CCOC)c1nnc(-c2ccc(OC)cc2)s1,"inconclusive: 0.141 µM [activator, full curve, poor fit]"
14,CC(=O)N(Cc1ccc(F)cc1)C1=C(NCc2ccccc2)C(=O)c2ccccc2C1=O,inactive
15,COc1ccccc1-n1cnc2cc(C(=O)NCC3CCCO3)ccc21 (stereo not drawn),"inconclusive: 12.6 µM [activator, partial curve]"
16,Cn1ccnc1Sc1ccc(/C=N/NC(=O)c2ccccc2[N+](=O)[O-])cc1[N+](=O)[O-],inactive
17,COc1ccccc1CNc1nc2nc(C)c(Cl)c(C)n2n1,"inconclusive: 35.5 µM [activator, single point]"
18,Cn1c(=O)c2c(SCc3cccnc3)nc(C3CC3)nc2n(C)c1=O,"inconclusive: 20 µM [activator, partial curve]"
19,Cc1ccc([N+](=O)[O-])cc1NC(=O)CCc1ccccc1,inactive
20,S=C1c2ccccc2CN1c1ccccc1,"inconclusive: 20 µM [activator, single point]"
21,O=C(/C=C/c1ccco1)NC(=S)Nc1ccccc1O,"inconclusive: 8.91 µM [activator, partial curve, poor fit]"
22,Cc1ccc(NC(=O)C(Cc2ccccc2)NS(=O)(=O)c2ccc3c(c2)oc(=O)n3C)c(Cl)c1 (stereo not drawn),inactive
23,O=C(/C=C/c1ccc(Cl)c(Cl)c1)NC1=NCCS1,inactive
24,O=C(Nc1nc(-c2ccccc2)cs1)C1CCCO1 (stereo not drawn),"inconclusive: 12.6 µM [activator, single point]"
25,Cc1nn(Cc2ccc(Cl)cc2)c(C)c1NC(=O)c1c(-c2ccccc2)noc1C,inactive
26,CCCn1c(NCc2ccco2)nc2ccccc21,"inconclusive: 0.501 µM [activator, full curve]"

row,SMILES,Potency
1,CCn1c(=N)c(C(=O)NC)cc2c(=O)n3cccc(C)c3nc21,"inconclusive: 11.2 µM [activator, partial curve, poor fit]"
2,O=C(CSc1nnnn1C1CCCCC1)Nc1cccc(NC(=O)c2ccco2)c1,inactive
3,CC(C)(C)c1cc(NC(=O)COC(=O)C2CC2)n(-c2ccccc2)n1,inactive
4,O=C(Cc1ccccc1)NC(=S)Nc1ccc2oc(-c3ccccc3F)nc2c1,"inconclusive: 11.2 µM [activator, single point]"
5,Oc1ccccc1-c1nnc(COc2ccc(Cl)cc2Cl)o1,"inconclusive: 28.2 µM [activator, single point]"
6,COCc1nnc(NC(=O)c2ccccc2Oc2ccccc2)s1,inactive
7,c1ccc(-c2ccccc2-c2nc(-c3ccncc3)no2)cc1,active: 3.16 µM
8,CN(Cc1ccccc1)Cc1c(F)cccc1F,active: 1.41 µM
9,O=C(Nc1ccccc1)N1CC=C(c2ccccc2)CC1,active: 12.6 µM
10,O=C(c1cccs1)n1nc(-c2ccc(Cl)cc2)nc1NCc1ccco1,"inconclusive: 17.8 µM [activator, single point]"
11,O=C(O)c1ccc(CSc2nnc(SCc3ccccc3)s2)cc1,inactive
12,Nc1nc(NC(=O)c2ccccc2)nn1-c1ccccc1,"inconclusive: 28.2 µM [activator, single point]"
13,O=C1C2C3C=CC(C2C(=O)N1c1cccc(O)c1)C1C2C(=O)N(c4cccc(O)c4)C(=O)C2C31 (stereo not drawn),inactive
14,OCCN(CCO)c1nc(N2CCCCC2)c2nc(N(CCO)CCO)nc(N3CCCCC3)c2n1,inactive
15,COc1ccc(C2c3c(-c4ccccc4)n[nH]c3C(=O)N2c2ccc(C(=O)O)cc2)c(OC)c1 (stereo not drawn),inactive
16,COc1ccc(-n2nc(C(=O)NCCc3ccc(Cl)cc3)c3c4ccccc4n(C)c3c2=O)cc1,inactive
17,CCOC(=O)Cn1c(=NC(=O)c2cccs2)sc2cc(C(=O)OC)ccc21,"inconclusive: 3.98 µM [activator, full curve]"
18,OB(O)c1ccc(Br)cc1,inactive
19,CCOc1ccc(N2Cc3ncccc3C2=O)cc1,active: 10 µM
20,O=C(COc1ccc(F)cc1)Nc1ccc(OCc2cc(=O)n3ccsc3n2)cc1,inactive
21,CCOC(=O)c1ccc(NC(=O)CCc2nc(-c3cccc(C)c3)no2)cc1,"inconclusive: 0.0141 µM [activator, full curve]"
22,Cc1nnc2ccc(-c3cccc(NS(C)(=O)=O)c3)nn12,"inconclusive: 15.8 µM [activator, single point]"
23,CC(NC(=O)CCc1nnc(CCCc2ccccc2)o1)c1ccccc1 (stereo not drawn),"inconclusive: 22.4 µM [activator, single point]"
24,Cc1cc2nn(-c3ccccc3)nc2cc1NC(=O)Cc1ccc(Cl)cc1,"inconclusive: 15.8 µM [activator, partial curve, poor fit]"
25,Cc1sc2nc(SCC(=O)C(C)(C)C)n(Cc3ccco3)c(=O)c2c1C,inactive
26,CC1CCCC(C)N1C(=O)COC(=O)C(Cc1ccccc1)NC(=O)c1cccs1 (stereo not drawn),inactive

row,SMILES,Potency
1,COc1ccc(C(=O)NCC(=O)OCC(=O)Nc2cc([N+](=O)[O-])ccc2F)cc1,inactive
2,COc1ccc(CCN(Cc2nc3ccccc3c(=O)[nH]2)C(=O)c2ccco2)cc1,"inconclusive: 0.0025 µM [activator, full curve, poor fit]"
3,O=C(/C(Cl)=C/Nc1ccc(Br)cn1)C(F)(F)F,inactive
4,O=C(c1nnc(-c2ccc(Cl)cc2)o1)C1CCCC1,"inconclusive: 15.8 µM [activator, partial curve]"
5,CCCC(C)NC(=O)c1sc2nc3n(c(=O)c2c1C)CCC3 (stereo not drawn),"inconclusive: 8.91 µM [activator, partial curve]"
6,CCOC(=O)C1CCCN(CCC(=O)Nc2ccc(C)cc2)C1 (stereo not drawn),inactive
7,CCOC(=O)c1sc(Nc2nc3c(F)cccc3s2)cc1C,"inconclusive: 5.01 µM [activator, partial curve]"
8,COc1ccc(-c2cc3ccccc3n2CC(O)CN2CCN(CCO)CC2)cc1 (stereo not drawn),"inconclusive: 22.4 µM [activator, single point]"
9,COc1ccc(-c2nsc(NC(=O)c3ccccc3Br)n2)cc1,inactive
10,COc1ccc2c3c([nH]c2c1)[C@H]1C[C@@H]2[C@@H](C[C@@H](O)[C@H](OC)[C@H]2C(=O)O)CN1CC3,"inconclusive: 5.62 µM [activator, single point]"
11,COc1ccc(OC)c(-n2c(SCC(=O)N3CCc4ccccc43)nc3c(c2=O)SCC3)c1,"inconclusive: 35.5 µM [activator, single point]"
12,CCCOc1ccc(/C=N/Nc2ccc(C(=O)O)cc2)c(OCCC)c1,inactive
13,O=C1c2ccccc2-c2nnc(-c3ccccc3)cc21,"inconclusive: 14.1 µM [activator, partial curve]"
14,Cc1ccc(-c2nc3ccccn3c2NCc2ccc3c(c2)OCO3)cc1,"inconclusive: 12.6 µM [activator, partial curve, poor fit]"
15,COc1cccc(NC(=O)Nc2ccc(CC(=O)O)cc2)c1,inactive
16,CCc1ccc(NC(=O)C2CCCN(S(=O)(=O)c3ccc4c(c3)oc(=O)n4C)C2)cc1 (stereo not drawn),inactive
17,C/C(=N/Nc1ccc2ccccc2n1)c1ccccc1O,"inconclusive: 5.62 µM [activator, single point]"
18,COc1ccc(NC(=O)c2noc3c2CCCCC3)cc1,active: 7.94 µM
19,CCOC(=O)N1CCN(C(=O)c2oc3ccc(S(=O)(=O)N4CCOCC4)cc3c2C)CC1,inactive
20,Nc1nc(-c2ccc(Cl)c(Cl)c2)c(-c2ccncc2)s1,inactive
21,O=c1c(Br)c(NCc2ccccc2)cnn1-c1ccc(F)cc1,"inconclusive: 12.6 µM [activator, partial curve]"
22,O=C(NCCc1ccc(F)cc1)c1cccs1,active: 15.8 µM
23,C=CCn1c(SCCN2CCCC2)nc2c([nH]c3ccccc32)c1=O,inactive
24,C=CCSc1nnc(-c2cccnc2)o1,"inconclusive: 12.6 µM [activator, single point]"
25,O=C(NNc1ccccc1[N+](=O)[O-])Nc1ccccc1,inactive
26,CCOc1ccc(C(=O)Nc2ccc(-c3cc4ccccc4oc3=O)cc2)cc1Br,inactive
